According to PMC3426524:
Results are given in words; binding and its absence hold for the method and conditions named. Binding seen in cells or lysates may run through a third protein. Some entries that bind do so weakly or less than the wild type.

Protein sequences, listed by entry. Tags and fused reporters are not part of them.
UniProt Q8NI27: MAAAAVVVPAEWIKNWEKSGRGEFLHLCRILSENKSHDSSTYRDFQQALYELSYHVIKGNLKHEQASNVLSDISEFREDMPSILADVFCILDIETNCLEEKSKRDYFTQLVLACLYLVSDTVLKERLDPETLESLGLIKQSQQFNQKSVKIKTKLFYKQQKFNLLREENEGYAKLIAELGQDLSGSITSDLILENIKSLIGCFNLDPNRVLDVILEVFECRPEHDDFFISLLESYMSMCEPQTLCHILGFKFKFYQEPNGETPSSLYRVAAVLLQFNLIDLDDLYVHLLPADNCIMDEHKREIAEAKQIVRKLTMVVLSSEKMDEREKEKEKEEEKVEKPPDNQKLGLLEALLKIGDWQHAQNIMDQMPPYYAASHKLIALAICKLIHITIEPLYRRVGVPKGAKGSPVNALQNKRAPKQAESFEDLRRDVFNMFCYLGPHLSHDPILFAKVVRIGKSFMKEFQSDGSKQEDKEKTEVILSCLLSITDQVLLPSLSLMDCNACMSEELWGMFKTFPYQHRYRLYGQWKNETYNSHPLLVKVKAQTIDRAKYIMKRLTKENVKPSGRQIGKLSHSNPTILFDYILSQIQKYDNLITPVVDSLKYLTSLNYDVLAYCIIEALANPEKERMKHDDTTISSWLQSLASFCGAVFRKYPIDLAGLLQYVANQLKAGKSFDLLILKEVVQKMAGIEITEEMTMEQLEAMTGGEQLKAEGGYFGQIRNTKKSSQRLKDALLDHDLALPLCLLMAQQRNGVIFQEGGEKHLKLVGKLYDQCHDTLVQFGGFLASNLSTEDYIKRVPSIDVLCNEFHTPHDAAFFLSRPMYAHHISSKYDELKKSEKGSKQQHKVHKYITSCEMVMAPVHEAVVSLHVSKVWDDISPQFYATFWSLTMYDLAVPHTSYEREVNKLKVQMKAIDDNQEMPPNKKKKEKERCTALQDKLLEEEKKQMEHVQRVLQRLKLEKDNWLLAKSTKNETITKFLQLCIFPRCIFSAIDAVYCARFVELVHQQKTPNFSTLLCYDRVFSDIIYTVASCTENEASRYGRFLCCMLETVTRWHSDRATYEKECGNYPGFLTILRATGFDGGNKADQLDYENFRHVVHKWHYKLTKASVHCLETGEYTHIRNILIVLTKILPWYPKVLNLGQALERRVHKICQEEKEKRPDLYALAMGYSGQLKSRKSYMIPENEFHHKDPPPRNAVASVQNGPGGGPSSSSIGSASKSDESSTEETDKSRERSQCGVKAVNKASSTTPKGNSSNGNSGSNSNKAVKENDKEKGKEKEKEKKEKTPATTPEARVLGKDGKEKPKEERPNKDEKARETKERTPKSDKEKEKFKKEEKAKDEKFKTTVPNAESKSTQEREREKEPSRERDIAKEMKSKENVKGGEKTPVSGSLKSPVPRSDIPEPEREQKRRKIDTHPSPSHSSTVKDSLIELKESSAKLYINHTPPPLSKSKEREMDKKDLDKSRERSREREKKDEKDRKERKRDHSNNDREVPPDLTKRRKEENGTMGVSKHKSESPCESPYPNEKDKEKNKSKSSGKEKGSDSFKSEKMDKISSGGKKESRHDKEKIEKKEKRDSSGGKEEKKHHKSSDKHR
UniProt Q13838: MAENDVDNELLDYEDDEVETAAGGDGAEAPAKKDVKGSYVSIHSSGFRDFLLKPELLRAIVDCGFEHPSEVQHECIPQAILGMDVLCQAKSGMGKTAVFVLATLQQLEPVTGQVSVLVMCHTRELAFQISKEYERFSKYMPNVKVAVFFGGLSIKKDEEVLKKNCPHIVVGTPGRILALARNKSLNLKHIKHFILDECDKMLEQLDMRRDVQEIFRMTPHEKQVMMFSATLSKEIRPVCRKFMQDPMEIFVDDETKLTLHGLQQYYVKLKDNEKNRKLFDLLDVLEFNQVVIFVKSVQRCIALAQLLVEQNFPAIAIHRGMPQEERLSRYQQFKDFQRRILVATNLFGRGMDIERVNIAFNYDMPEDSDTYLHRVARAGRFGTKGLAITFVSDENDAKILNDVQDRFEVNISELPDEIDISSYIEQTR
UniProt O75152: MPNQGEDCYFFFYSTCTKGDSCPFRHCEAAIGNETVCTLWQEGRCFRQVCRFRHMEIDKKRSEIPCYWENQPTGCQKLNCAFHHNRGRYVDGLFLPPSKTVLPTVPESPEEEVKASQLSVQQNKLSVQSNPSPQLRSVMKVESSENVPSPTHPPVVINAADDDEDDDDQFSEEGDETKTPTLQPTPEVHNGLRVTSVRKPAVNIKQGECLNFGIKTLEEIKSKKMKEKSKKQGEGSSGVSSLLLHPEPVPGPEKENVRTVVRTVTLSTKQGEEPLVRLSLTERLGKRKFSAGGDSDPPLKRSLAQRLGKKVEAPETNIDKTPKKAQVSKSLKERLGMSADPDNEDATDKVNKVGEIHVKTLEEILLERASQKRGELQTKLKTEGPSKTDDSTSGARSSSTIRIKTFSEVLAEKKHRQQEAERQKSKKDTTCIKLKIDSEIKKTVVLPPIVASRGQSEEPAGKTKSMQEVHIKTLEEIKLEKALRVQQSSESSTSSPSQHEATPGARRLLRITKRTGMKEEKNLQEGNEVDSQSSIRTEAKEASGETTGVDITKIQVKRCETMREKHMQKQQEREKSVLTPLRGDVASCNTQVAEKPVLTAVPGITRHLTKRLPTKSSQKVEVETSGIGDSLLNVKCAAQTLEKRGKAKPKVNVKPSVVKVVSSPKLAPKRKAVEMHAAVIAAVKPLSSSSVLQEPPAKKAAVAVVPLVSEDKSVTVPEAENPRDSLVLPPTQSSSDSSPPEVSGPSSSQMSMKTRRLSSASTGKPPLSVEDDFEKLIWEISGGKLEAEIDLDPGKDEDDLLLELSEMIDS

B1: PDIP3α (protein, UniProt Q9BY77 1-421)
chain: MADISLDELIRKRGAAAKGRLNARPGVGGVRSRVGIQQGLLSQSTRTATFQQRFDARQKIGLSDARLKLGVKDAREKLLQKDARFRIKGKVQDAREMLNSRKQQTTVPQKPRQVADAREKISLKRSSPAAFINPPIGTVTPALKLTKTIQVPQQKAMAPLHPHPAGMRINVVNNHQAKQNLYDLDEDDDGIASVPTKQMKFAASGGFLHHMAGLSSSKLSMSKALPLTKVVQNDAYTAPALPSSIRTKALTNMSRTLVNKEEPPKELPAAEPVLSPLEGTKMTVNNLHPRVTEEDIVELFCVCGALKRARLVHPGVAEVVFVKKDDAITAYKKYNNRCLDGQPMKCNLHMNGNVITSDQPILLRLSDSPSMKKESELPRRVNSASSSNPPAEVDPDTILKALFKSSGASVTTQPTEFKIKL
B2: PDIP3β (protein, UniProt Q9BY77-2 1-392)
chain: MADISLDELIRKRGAAAKGRLNARPGVGGVRSRVGIQQGLLSQSTRTATFQQRFDARQKIGLSDARLKLGVKDAREKLLQKDARFRIKGKVQDAREMLNSRKQQTTVPQKPRQVADAREKISLKRSSPAAFINPPIGTVTPALKLTKTIQNLYDLDEDDDGIASVPTKQMKFAASGGFLHHMAGLSSSKLSMSKALPLTKVVQNDAYTAPALPSSIRTKALTNMSRTLVNKEEPPKELPAAEPVLSPLEGTKMTVNNLHPRVTEEDIVELFCVCGALKRARLVHPGVAEVVFVKKDDAITAYKKYNNRCLDGQPMKCNLHMNGNVITSDQPILLRLSDSPSMKKESELPRRVNSASSSNPPAEVDPDTILKALFKSSGASVTTQPTEFKIKL

Columns and labels:
[1] = molecular target: THOC2 (human (endogenous in HeLa)) (UniProt Q8NI27); assay: co-IP; with ATP: antibodies cross-linked to protein A Sepharose; HeLa nuclear extract with 500 µM ATP, 3.2 mM MgCl2, 20 mM creatine phosphate and 50 ng/µl RNase A, 20 min at 30°C; IP overnight at 4°C in 1X PBS, 0.1% Triton; Western
[2] = molecular target: UAP56 (human (endogenous in HeLa)) (UniProt Q13838); assay: as above
[3] = molecular target: THOC2 (human (endogenous in HeLa)) (UniProt Q8NI27); assay: co-IP; without ATP: as the +ATP IP, but ATP, MgCl2 and creatine phosphate omitted and substituted with water; RNase-treated HeLa nuclear extract; Western
[4] = molecular target: UAP56 (human (endogenous in HeLa)) (UniProt Q13838); assay: as above
[5] = molecular target: THOC2 (human (endogenous in HeLa)) (UniProt Q8NI27); assay: co-IP; with ATP: antibodies cross-linked to protein A Sepharose; HeLa nuclear extract with 500 µM ATP, 3.2 mM MgCl2, 20 mM creatine phosphate and 50 ng/µl RNase A, 20 min at 30°C; IP overnight at 4°C in 1X PBS, 0.1% Triton; Western; remark: listed apart in the source
[6] = molecular target: UAP56 (human (endogenous in HeLa)) (UniProt Q13838); assay: as above; remark: listed apart in the source

Molecule | binding [1] | binding [2] | binding [3] | binding [4] | binding [5] | binding [6]
ZC11A (from UniProt O75152 1-810) | binds | binds | no binding (condition: without ATP) | no binding (condition: without ATP) | – | –
B1 | – | – | – | – | binds | binds
B2 | – | – | – | – | binds | binds
